Results on 27 compounds are retold here after PubChem BioAssay AID1508642 (National Center for Advancing Translational Sciences (NCATS), 2021).

SMILES strings stand for the structures. The whole screen tested about 43,000 compounds, of which about 200 (0.47%) were called active. Inconclusive results (about 12%) are left out. Calls come from the whole dose curve; as a rule, active = well fitted cell-killing curve with a large enough effect; inconclusive = small, poorly fitted or top-dose-only effect, or effect the other way; inactive = flat fitted curve, though single readings scatter. The list shows a part of the results.
% is set by controls: 0 for no effect and ±100 for the full control effect.

The assay can be described thus: Cell viability qHTS assay in S16 Pmp22-F2sN cells. Note: nearly all actives have a fitted effect of over 65% in size. As to conditions: S16 Pmp22-F2sN Schwann cells (luciferase reporters placed in the Pmp22 gene) viability, CellTiter-Glo, 24 h; series mostly up to 57.5 µM; activity change, negative = cytotoxicity: at the top concentration. The essentials: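 Rat S16 Schwann reporter line, 24 h treatment with library compounds delivered at 23 nL per well. Cell viability by CellTiter-Glo luminescence.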
Take `CN(C(=O)c1ccc2c(c1)N(Cc1cccc(Cl)c1)C(=O)c1ccccc1S2=O)C1CCCCC1` (configuration not stated): the “activity change, negative = cytotoxicity” value is inactive: -23%.
With `COc1ccc(NC(=O)CCS(=O)(=O)c2cccc3nonc23)cc1Cl`, the “activity change, negative = cytotoxicity” value is inactive: 7.31%.
The result for `Cc1ccc(CSCc2ccc(C(=O)NCCc3ccc(Cl)cc3)o2)cc1` reads inactive: -16.6%; that for `Cc1cc(C)cc(N2C(=O)CSC23C(=O)N(CC(=O)NCCc2ccccc2)c2ccccc23)c1` (configuration not stated), inactive: 0.95%; that for `O=C(CSC1=Nc2ccccc2N=C(c2ccc(F)cc2)C1)NCc1ccc(F)cc1`, inactive: 16.4%.
As to `Cc1ccc(C)c(CN2C(=O)CSc3ccc(C(=O)NCc4ccc(F)cc4)cc32)c1`, the “activity change, negative = cytotoxicity” value is inactive: 1.07%.
For the compound `COc1ccccc1NCc1cccn1-c1nnc(N2CCOCC2)s1`, the “activity change, negative = cytotoxicity” value was inactive: -1.11%.
With `Cc1oc2ncn(C)c(=O)c2c1C(=O)NC(C)c1ccccc1` (configuration not stated), the “activity change, negative = cytotoxicity” value is inactive: -9.14%.
With `Cc1nc(C)c(-c2ccc(SCC(=O)Nc3ccc(C)c(F)c3)nn2)s1`, the “activity change, negative = cytotoxicity” value is inactive: -1.43%.
On to `COc1ccc(CNC(=O)c2c(O)nc3cc(C)ccn3c2=O)cc1`, for which the “activity change, negative = cytotoxicity” value is inactive: 2.79%.
For `CCc1ccc2ncc3c(-c4ccc(F)cc4)nn(CC(=O)NCc4ccccc4)c3c2c1` the value was inactive: 4.47%.
For `CC(C)CC(C(=O)NCc1ccc(F)cc1)N1Cc2ccccc2C1=O` (configuration not stated) the value was inactive: -0.604%; for `Cc1ccc(C(C)C)c(OCC(=O)Nc2ccc(C(=O)OC3CCCCC3)cc2)c1`, inactive: 4.24%.
In the case of `CCOc1ccc(-c2nc(SCC(=O)Nc3ccc(C)c(C)c3)n3[nH]c(=O)cc3n2)cc1`, the “activity change, negative = cytotoxicity” value was inactive: -1.8%.
For the compound `Cc1cccc(NC(=O)CSc2nc(-c3ccccc3)cn2-c2ccccc2)c1C`, the “activity change, negative = cytotoxicity” value is inactive: 2.5%.
For `Cc1ccc(C)c(-n2c(CCC(=O)O)ccc2-c2ccc(Cl)cc2)c1` the value was inactive: 2.17%.
The result for `COc1ccc(Nc2ncc(C(=O)N3CCN(c4cccc(Cl)c4)CC3)c3ccccc23)cc1` reads inactive: -16%; that for `COc1cccc(CNC(=O)Cc2ccc(NC(=O)N3CCCCc4ccccc43)cc2)c1OC`, inactive: -18.3%.
In the case of `CCc1nnc(SCc2nc(-c3ccc(OC)c(OC)c3)oc2C)c2cc3sc(C)cc3n12`, the “activity change, negative = cytotoxicity” value was inactive: 8.43%.
With `Cc1ccc(/C=C/c2onc(C)c2S(=O)(=O)N2CCC(C(=O)NCc3ccc(C)o3)CC2)cc1`, the “activity change, negative = cytotoxicity” value is inactive: 7%.
The result for `Cc1ccc2c(=O)cc(C(=O)Nc3cccc(Cl)c3C)oc2c1C` reads inactive: -1.6%; that for `Cc1cc(Nc2cccc(C)c2C)n2cnnc2n1`, inactive: 12.4%.
Consider `Cc1ccc(C(=O)CC2(O)C(=O)N(CCc3ccccc3)c3ccc(Cl)cc32)cc1` (configuration not stated), for which the “activity change, negative = cytotoxicity” value was inactive: 18.5%.
On to `Cn1c(=O)c2c(-c3ccccc3Cl)n(-c3cc(Cl)ccc3O)cc2n(C)c1=O`, for which the “activity change, negative = cytotoxicity” value was inactive: -14.1%.
`COc1ccc(OCCCCn2c(-c3ccc(Cl)cc3)nc3ccccc3c2=O)cc1`: the “activity change, negative = cytotoxicity” value is inactive: 7.05%.
Regarding `CCCCCOC(=O)CSc1ncnc2c1sc1nc(N3CCOCC3)c3c(c12)CCCC3`, the “activity change, negative = cytotoxicity” value was inactive: -4.94%.
The result for `Cc1oc2ncn(CC(C)C)c(=O)c2c1C(=O)NCCCN1CCCCC1` reads inactive: 10.9%.
